In this series the test system is ATP. Nature of the series: switch fluorescence ratio, 500 uM ATP over buffer (Cy3 cluster intensity, sum of 5 cycles each) (fold (ratio)); higher = stronger signal-on switching upon ATP binding; sequences stand for … in TCGTCGGCAGCGTCAGATGTGTATAAGAGACAGTTTTTTTTTTTTTTTTTTTTTTTTT…TC. The settings on record: aptamer strand: ATP DNA aptamer (quencher-CACCTGGGGGAGTATTGCGGAGGAAGG + anchor), 100 nM annealed; ATP concentration: 500 uM; one replicate. The method, boiled down:
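Exposure to 500 uM ATP lasted 15 min at 22 °C before imaging, and a selection-buffer image was taken beforehand, for Cy3-labelled switching-strand clusters on a modified Illumina MiSeq flow-cell annealed to 100 nM quencher-labelled ATP aptamer. Five buffer/ATP cycles were run with NaOH stripping and re-annealing between them. The fluorescence ratio per cluster is summed target-cycle over summed buffer-cycle Cy3 intensity, averaged per switch-domain sequence. Clusters outside 100-1000 RFU were excluded.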

Values marked as one replicate rest on one cluster of the flow cell; about a third of the high ones do not repeat.

Turning to CTGCATATCA, the switch fluorescence ratio was 1.14. The same measure for CCGGTTTCAA: 1.26; for AAATTTCTCT: 0.986; for CAATTATGTG: 0.957. Next, AAGGAATTAG: 0.982; TGTTTGGATC: 1.01. Next, AAGCTATAGC: 1.04. As for AAAGATTGGG, the switch fluorescence ratio amounted to 1.02. Next, GTGTTGGAGC: 0.972.

Regarding CTCATGGTCG, the switch fluorescence ratio is 1.06. Regarding TCTTTAGGTT, the switch fluorescence ratio came to 1.01.

As to CCTGTCGGGC, the switch fluorescence ratio was found to be 1.03. For TCAGCTCGGT, the switch fluorescence ratio was found to be 0.998. The same measure for GATTTCCACG: 1.04; for GGACGTAGCC: 1.06. Next, CTGACTCTTT: 1.1.

ATTATCGCTC: the switch fluorescence ratio amounted to 1.45. Next, GGGAAAATC: 0.958; TAATTCGAGA: 0.978; ATTCTGCACT: 1.05. Next, GTCCGGACTG: 1.02. Consider GGGGCTCGTG, for which the switch fluorescence ratio worked out at 1.02.

GGTCTGTGAA: the switch fluorescence ratio stood at 0.977. Next, GGGCGACTAG: 1.04; AATTGATCTC: 0.983; TACGGGAGGA: 1.05. Consider AGAAGGATCG, for which the switch fluorescence ratio turned out to be 0.999. The same measure for CTTGCACTGA: 1.02. Next, TGGTACTGTA: 1.08; TCATATGGTA: 0.963. Next, ACCCCGGACT: 1.04.

GCACGGTGTG: the switch fluorescence ratio came to 1. The same measure for AAGAGAATGA: 1.02. As for TTGTAACC, the switch fluorescence ratio stood at 1.01. Consider GATCGTTCGC, for which the switch fluorescence ratio turned out to be 1.03. Next, AGTTTTT: 0.977; CGTGACATCT: 0.997. GATTTATGCC: the switch fluorescence ratio was 1.04. The same measure for GGTCGTTATT: 0.979. Next, TCTACTGGCC: 0.967; CGGCGGCCAC: 0.963. GTAGGATGCG: the switch fluorescence ratio was determined as 0.996. Next, GCTTAGTCCA: 1.03; GGAACCTAG: 0.994. Regarding TAGTTAGTCG, the switch fluorescence ratio came out at 0.942. Next, AGCTTGACAG: 1.03; ATCGACGGAT: 0.99; CAGACTATG: 0.962. In the case of ACGGTTCCTT, the switch fluorescence ratio amounted to 1.11. Next, CCTTATTTTT: 1.01; ACCCTCCTT: 1.07; TTTCGGGT: 1.

TACCCGTCCT: the switch fluorescence ratio came out at 1.11. Take ATAGAGTGT: the switch fluorescence ratio is 0.991. The same measure for CTCTACGCGG: 1.08. The same measure for CCCGTACCTC: 1.55; for AAACGCGTCA: 0.979.

With CACTTTGAGC, the switch fluorescence ratio was 1.08. For ATACCGTCCC, the switch fluorescence ratio was found to be 1.32. The same measure for AATAAAGTCT: 1; for ACCTAGTACG: 1.1. Regarding CGGTTCTACT, the switch fluorescence ratio stood at 1.03.

Take CAACGTTGGC: the switch fluorescence ratio is 0.98. For GGTGTACACG, the switch fluorescence ratio came to 0.998. In the case of TAGTGAACTG, the switch fluorescence ratio turned out to be 0.958.

Take TAGCGAATTG: the switch fluorescence ratio was 1.01. With AGCTATCGGA, the switch fluorescence ratio stood at 1.02.

Values taken from the supplement of paper PMC10126150.
